Here are results for 172 sequences from PMC10668032.

The other results are listed elsewhere or left out. At the low end of the ranking the order means little.

The assay deals with SIX1 homeodomain (reference allele) (UniProt Q15475). Description: universal protein binding microarray. As to conditions: Universal all-10-mer PBM (8x60K, AMADID 030236), 300 nM GST-tagged protein, Alexa Fluor 488 anti-GST; buffer, salt, pH and temperature not stated; high values mean tight binding; most listed sequences are background and not binding sites; double strand, one strand shown.
AAGCAATA: the binding signal turned out to be 0.141 E-score.
Then CAAGCCTA, with -0.195 E-score.
In the case of GAATTTCA it was -0.267 E-score; in that of CTGCGGCC, -0.0392 E-score; in that of AGGCAGTA, -0.172 E-score.
In the case of AAGTACGT it was -0.00652 E-score; in that of ACGTCTAC, -0.16 E-score; in that of CCGACGGA, -0.0714 E-score.
Turning to TTCAACAA, the binding signal was -0.0609 E-score.
In the case of GGATAGAA it was 0.176 E-score.
In the case of GACTAGAA it was -0.141 E-score; in that of CCGATCAA, 0.122 E-score.
Then CGCCCCGA, with 0.105 E-score.
In the case of GGTTTGCA, the binding signal is -0.0893 E-score.
Consider TACGTGGA, for which the binding signal worked out at 0.195 E-score.
Take AAGCAGAC: the binding signal was -0.1 E-score.
Then CCCCGACA, with 0.00234 E-score; and CCGGCAGG, with -0.147 E-score.
In the case of CATAGCAG it was -0.141 E-score; in that of AACTAAGT, -0.152 E-score; in that of ATCGAAAT, 0.0372 E-score.
Then CTTTGGTA, with -0.18 E-score.
Consider CGTTTATC, for which the binding signal was found to be 0.0183 E-score.
Turning to CGCTCAAA, the binding signal is -0.0913 E-score.
GTTCGAGA: the binding signal is -0.162 E-score.
In the case of AAACCACT it was 0.00495 E-score.
Then AATGAAGG, with -0.138 E-score; and ACATGATG, with -0.024 E-score; and ATGGGTTA, with 0.124 E-score.
On to CAGCGCCC, for which the binding signal was -0.189 E-score.
As for CCGGACGC, the binding signal was -0.182 E-score.
With CCAAATCG, the binding signal was -0.0505 E-score.
In the case of CCCCTCCC it was 0.0159 E-score; in that of AGTGTTAC, -0.138 E-score.
Regarding CCCAGTGC, the binding signal was 0.128 E-score.
Then AGCCAAGA, with -0.119 E-score.
In the case of GGCGTTAA, the binding signal is -0.0898 E-score.
Then AGCCCCCT, with -0.121 E-score.
In the case of GTCTCCCA, the binding signal is 0.0479 E-score.
Regarding GAGATCAC, the binding signal is 0.368 E-score.
CGGCGTGC: the binding signal is -0.137 E-score.
Then AACGCTAG, with -0.164 E-score; and CATGAATA, with -0.0164 E-score; and TCCCGCGA, with 0.177 E-score.
In the case of CATACGCC, the binding signal turned out to be 0.11 E-score.
For the sequence ATCGGCAG, the binding signal is 0.0557 E-score.
In the case of ACGTCGCC, the binding signal was -0.21 E-score.
For the sequence GGTCAGGA, the binding signal is 0.0405 E-score.
In the case of CCCTACGC it was 0.0368 E-score; in that of AATAATAT, 0.228 E-score; in that of ACAGACGC, -0.0184 E-score.
Then ACGGAGTG, with -0.101 E-score; and CATGTAGA, with 0.0538 E-score; and GCATCTTA, with 0.112 E-score.
As to GGCTCCCC, the binding signal is -0.116 E-score.
Then GAGGAGAA, with -0.15 E-score.
Take CATGGCGC: the binding signal is -0.0882 E-score.
For the sequence CCTGCGTC, the binding signal is -0.0548 E-score.
In the case of GTCTGGGA it was -0.134 E-score; in that of AGCGGACT, -0.0737 E-score.
On to GAGTCGGC, for which the binding signal is -0.164 E-score.
Then CTGCCGCA, with -0.236 E-score; and CGGGTCTA, with 0.222 E-score.
Turning to CCAGAAAA, the binding signal was -0.162 E-score.
For CTAGTGGA, the binding signal was determined as 0.0328 E-score.
In the case of CTTCAGCC it was -0.208 E-score.
Turning to CCATAAAA, the binding signal was -0.249 E-score.
In the case of GCGAGAAA, the binding signal was -0.0399 E-score.
For the sequence GAAAGAGC, the binding signal was -0.291 E-score.
As to GAAAGCTA, the binding signal is -0.135 E-score.
GGATCTAA: the binding signal was determined as 0.285 E-score.
With CTAGCCTA, the binding signal was -0.101 E-score.
Then ATTTATGC, with -0.211 E-score; and AGTGCCGG, with -0.246 E-score.
Consider ACAGGGGC, for which the binding signal was -0.0302 E-score.
Take CCGGTCGC: the binding signal was -0.127 E-score.
Then TGCCACAA, with -0.116 E-score; and AAATAGAA, with -0.101 E-score; and CCAAGCAG, with -0.0514 E-score.
In the case of ATCGTTTC it was 0.0417 E-score; in that of CTCTGCAC, -0.117 E-score; in that of GTTAACAA, -0.199 E-score.
Take AGCGGCCC: the binding signal was -0.00783 E-score.
Then ACTGCATG, with -0.116 E-score.
In the case of CAAAACTG it was -0.136 E-score; in that of CTATTATC, 0.189 E-score; in that of CCAACAGG, -0.202 E-score.
Consider AGCCAAAG, for which the binding signal was -0.0013 E-score.
Regarding CTGTCCGC, the binding signal was -0.122 E-score.
In the case of CCCGAAGA it was 0.0118 E-score.
In the case of AAAATGGG, the binding signal was -0.351 E-score.
Consider ATGCAACG, for which the binding signal is -0.0952 E-score.
Then GGCAGTTA, with -0.138 E-score; and GTGTGAAC, with -0.103 E-score; and ATGACTGG, with -0.244 E-score.
For GCCCTTAA, the binding signal is -0.0831 E-score.
In the case of GTGAGTTA, the binding signal was -0.165 E-score.
Then TATAAGCA, with 0.0532 E-score.
In the case of AATTATCT it was 0.077 E-score; in that of ATAGAGAA, 0.0744 E-score.
For CAAGGGCA, the binding signal is -0.186 E-score.
In the case of TAAGGTAA it was 0.0235 E-score.
In the case of CCGTCGCG, the binding signal is 0.045 E-score.
Then CTTAAAAG, with -0.185 E-score; and TGACTCAA, with -0.258 E-score; and AGTGAAAT, with -0.146 E-score.
Then ATAGAGTA, with 0.115 E-score.
For CGGGGCTC, the binding signal was 0.118 E-score.
In the case of AGATGCAG it was -0.058 E-score; in that of GAACATAA, -0.128 E-score; in that of AAAAAGCC, -0.314 E-score.
Regarding GCTTAAAA, the binding signal was -0.155 E-score.
In the case of ACCTGGCC it was -0.0954 E-score; in that of CCTTAGCC, 0.076 E-score.
Then ATTACTTA, with 0.00012 E-score; and ATCGTTGA, with 0.153 E-score.
For CGTAACTA, the binding signal is -0.131 E-score.
For the sequence ATAGACGA, the binding signal is -0.0258 E-score.
Then ACCCCCGG, with 0.204 E-score; and CATTGGAC, with -0.187 E-score.
In the case of CTGCTTCC it was -0.22 E-score; in that of AATAAGTC, -0.295 E-score.
In the case of CAAGGGTG it was -0.0445 E-score; in that of CTCACCAG, 0.114 E-score; in that of ACGTCTCG, 0.0654 E-score.
With CCTAGCGC, the binding signal was -0.225 E-score.
With AGGGTCCG, the binding signal was -0.135 E-score.
In the case of CCCAGCCA it was -0.016 E-score; in that of CCATCGAG, 0.0901 E-score; in that of CGACGTAC, -0.178 E-score.
In the case of AATGCCAG, the binding signal was -0.238 E-score.
Consider ACTGCGCC, for which the binding signal was -0.162 E-score.
Then CCGGACAG, with -0.129 E-score; and AGGCGTCA, with -0.155 E-score; and ACTGCGAA, with -0.369 E-score.
Regarding AAACAATT, the binding signal is -0.235 E-score.
As for CTGGATAC, the binding signal was determined as 0.387 E-score.
In the case of GACGGAGA it was 0.041 E-score; in that of ACTTACGG, -0.102 E-score.
In the case of ATGTTACC it was -0.0599 E-score; in that of TTCGGAAA, -0.327 E-score.
As for ATCCACTG, the binding signal is 0.152 E-score.
For ACGGATAG, the binding signal was determined as 0.344 E-score.
For the sequence CGCGTTGA, the binding signal was -0.228 E-score.
Then CCCGTCCA, with -0.0528 E-score; and TGCACGCA, with -0.22 E-score; and GACATAAA, with -0.158 E-score.
In the case of CCATATCG it was 0.454 E-score; in that of GTTTTCTA, -0.122 E-score.
Turning to ACATGTAA, the binding signal is -0.0393 E-score.
Then ATACGATA, with 0.419 E-score; and GGAGCAAA, with -0.258 E-score.
Then ACTGTACG, with -0.205 E-score; and CACGTCGA, with -0.0592 E-score.
In the case of ACTAGAAG it was 0.00466 E-score.
Take CCTTAGAA: the binding signal is -0.033 E-score.
In the case of ACAGGCCG it was -0.118 E-score; in that of AGGTCCTA, -0.0891 E-score; in that of CGTCACTA, 0.0459 E-score.
Then CTATCGGA, with 0.289 E-score; and AACGTGGT, with 0.000195 E-score; and GGAAGCCA, with -0.0636 E-score.
As for AGGGGAAG, the binding signal came out at 0.0743 E-score.
Then AAAGTATA, with 0.173 E-score.
Consider CAGCTAAG, for which the binding signal was -0.196 E-score.
Then TGCAACAA, with -0.0996 E-score; and CCCTTGTA, with 0.0338 E-score.
With CAATTATA, the binding signal is -0.0613 E-score.
In the case of ACCAAAGG it was -0.00859 E-score; in that of CTGCCTCC, -0.173 E-score; in that of ACGAGTAG, 0.0478 E-score.
Then AAATGGCT, with -0.138 E-score.
